Assay results published in a collection of fitness landscapes (doi:10.1126/science.1257360).
This is one part of the list.

B1: PhoQ; a variant is named by its letters at X, in order, P23837 (parent)
chain: MKKLLRLFFPLSLRVRFLLATAAVVLVLSLAYGMVALIGYSVSFDKTTFRLLRGESNLFYTLAKWENNKLHVELPENIDKQSPTMTLIYDENGQLLWAQRDVPWLMKMIQPDWLKSNGFHEIEADVNDTSLLLSGDHSIQQQLQEVREDDDDAEMTHSVAVNVYPATSRMPKLTIVVVDTIPVELKSSYMVWSWFIYVLSANLLLVIPLLWVAAWWSLRPIEALAKEVRELEEHNRELLNPATTRELTSLVRNLNRLLKSERERYDKYRTTLTDLTHSLKTPLXXLQXXLRSLRSEKMSVSDAEPVMLEQISRISQQIGYYLHRASMRGGTLLSRELHPVAPLLDNLTSALNKVYQRKGVNISLDISPEISFVGEQNDFVEVMGNVLDNACKYCLEFVEISARQTDEHLYIVVEDDGPGIPLSKREVIFDRGQRVDTLRPGQGVGLAVAREITEQYEGKIVAGESMLGGARMEVIFGRQHSAPKDE

Variants of: B1
Assay: enrichment ratio after two sorts for PhoP signalling (ratio (wild type AVST 3.29)); higher = more functional
Settings: with PhoP (E. coli)

Variant	enrichment ratio
KQSQ	≤ 0.25
HDNQ	2.96
NSPC	≤ 0.25
PIAT	≤ 0.25
GIHW	≤ 0.25
TLAR	0.326
PTYK	≤ 0.25
GSQG	≤ 0.25
DAVE	≤ 0.25
PKFN	≤ 0.25
GCCG	18.1
TIFI	0.264
KRND	≤ 0.25
WDIL	≤ 0.25
QRYP	≤ 0.25
DTYT	≤ 0.25
KCMF	≤ 0.25
DCTI	≤ 0.25
MKTY	≤ 0.25
WEFY	≤ 0.25
AIPS	≤ 0.25
WIDR	≤ 0.25
KQPT	≤ 0.25
GPHP	≤ 0.25
RQGR	≤ 0.25

Variant	enrichment ratio
FTML	12
KHCL	≤ 0.25
DPGY	≤ 0.25
WKCG	≤ 0.25
FQVD	≤ 0.25
HHPE	≤ 0.25
MTHY	≤ 0.25
FFGS	≤ 0.25
AYQG	≤ 0.25
RWCN	≤ 0.25
GYMS	≤ 0.25
TYRV	≤ 0.25
WASG	≤ 0.25
SITQ	7.2
DWEN	≤ 0.25
FFCM	0.845
HPIN	≤ 0.25
MHPC	≤ 0.25
DPNY	≤ 0.25
YLTP	≤ 0.25
YCCK	≤ 0.25
SSAK	≤ 0.25
VPPD	≤ 0.25
EVPK	≤ 0.25
NDME	≤ 0.25

Variant	enrichment ratio
GLDT	≤ 0.25
IYPT	≤ 0.25
MNEH	≤ 0.25
LMPG	≤ 0.25
SYVM	0.307
GTSG	0.936
LIHI	≤ 0.25
WEYM	≤ 0.25
YPVW	≤ 0.25
DRPI	≤ 0.25
KDHW	≤ 0.25
SYEP	≤ 0.25
SQHE	≤ 0.25
WEEV	≤ 0.25
WYKN	≤ 0.25
MSFG	4.23
PQCW	≤ 0.25
RAMH	≤ 0.25
QYYI	≤ 0.25
DQTY	≤ 0.25
WISY	≤ 0.25
TKQN	≤ 0.25
GRQI	≤ 0.25
SRCC	0.803
IPCN	≤ 0.25

Variant	enrichment ratio
IRVL	≤ 0.25
VSRI	≤ 0.25
HQKG	≤ 0.25
WTMC	≤ 0.25
QPQP	≤ 0.25
TLLP	0.257
QQHQ	≤ 0.25
TVLI	0.851
WRIK	≤ 0.25
HMRP	≤ 0.25
YTHC	≤ 0.25
WQWH	≤ 0.25
YTAD	≤ 0.25
IMTH	≤ 0.25
VKIK	≤ 0.25
MTVA	≤ 0.25
YVLM	4.78
DKAY	≤ 0.25
YVLQ	2.38
PIRS	≤ 0.25
PQRT	≤ 0.25
TMEL	15.3
NMEC	≤ 0.25
NMAN	≤ 0.25
AGYT	0.289

Variant	enrichment ratio
YGYV	≤ 0.25
GIKN	≤ 0.25
SSDN	≤ 0.25
PMKD	≤ 0.25
VECV	9.31
AFIN	≤ 0.25
GYMG	≤ 0.25
INFR	≤ 0.25
YVTI	0.32
PSYM	≤ 0.25
NYMN	≤ 0.25
HTKS	≤ 0.25
SVIM	≤ 0.25
PYKR	≤ 0.25
SLQY	≤ 0.25
TNGG	7.52
ARTL	8.25
PAYK	≤ 0.25
TAHG	1.9
FLGH	≤ 0.25
VDWL	≤ 0.25
TEVL	9.29
AGPL	≤ 0.25
RSCI	≤ 0.25
VYTM	≤ 0.25

Variant	enrichment ratio
KNAS	≤ 0.25
SHPP	≤ 0.25
VAHM	0.984
MTVV	≤ 0.25
EKSG	≤ 0.25
ELQP	≤ 0.25
IDFV	≤ 0.25
LNCG	0.325
YCRN	≤ 0.25
WIYG	≤ 0.25
LILW	≤ 0.25
TLPW	≤ 0.25
RYVN	≤ 0.25
IFTI	≤ 0.25
IALF	≤ 0.25
WTYS	≤ 0.25
LQHR	≤ 0.25
QKFF	≤ 0.25
LAAP	≤ 0.25
RVEI	≤ 0.25
PSPI	≤ 0.25
EMFQ	≤ 0.25
KSHW	≤ 0.25
GVTQ	≤ 0.25
KIGV	≤ 0.25

Variant	enrichment ratio
MQTY	≤ 0.25
IERR	≤ 0.25
MGMH	≤ 0.25
FTRN	≤ 0.25
YCTM	0.558
QNVT	≤ 0.25
HDKG	≤ 0.25
HWHS	≤ 0.25
QQLM	≤ 0.25
SLCY	2.99
EEPM	≤ 0.25
GMAC	≤ 0.25
GQFY	≤ 0.25
ITVH	≤ 0.25
WHAY	≤ 0.25
LNKP	≤ 0.25
KEFD	≤ 0.25
MDNF	≤ 0.25
YMLI	≤ 0.25
FRCD	≤ 0.25
MWWP	≤ 0.25
YGFS	≤ 0.25
NMEF	≤ 0.25
VCQL	≤ 0.25
AISS	11.1

Variant	enrichment ratio
APTS	≤ 0.25
GSWD	≤ 0.25
HVCR	≤ 0.25
FRHP	≤ 0.25
WVMK	≤ 0.25
KTTV	≤ 0.25
TTEW	≤ 0.25
MTRT	≤ 0.25
IMVV	≤ 0.25
WFWD	≤ 0.25
VRLP	≤ 0.25
FWHG	≤ 0.25
SCWK	≤ 0.25
GGSE	≤ 0.25
VSWR	≤ 0.25
GNGH	≤ 0.25
IFNK	≤ 0.25
FFPV	≤ 0.25
DLRK	≤ 0.25
ATGN	3.43
